From the supplement of paper PMC11348887
Counter-ions that a name gives are not always drawn. This is one part of the list. No stated cut-off is given here; in the data, active = -2 or less and inactive = the rest. Single values are uncertain, as repeats are few or missing.

system: hPSC-derived cortical neurons (WA09); assay: nuclei number (viability) z-score; higher = more surviving cells; details: 5 µM; treatment: days 7-14 after plating, readout day 21
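Further: nuclei counted from DAPI counterstain by automated high-content image analysis, four fields per well at ×20 in 384-well plates, with sequential b-score then z-score normalization.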

SMILES | nuclei number (z-score)
CC1(C)CC(=O)c2c(C(F)(F)F)nn(-c3ccc(C(N)=O)c(N[C@H]4CC[C@H](O)CC4)c3)c2C1 | active: -7.88
CCCCc1nc2cc(/C=C/C(=O)NO)ccc2n1CCN(CC)CC [Pracinostat (SB939)] | active: -3.47
COc1cc2nc(N(C)CCCNC(=O)C3CCCO3)nc(N)c2cc1OC (stereo unspecified) [Alfuzosin HCl] | inactive: -0.812
COc1ccc(-c2ccc3ncc4c(c3c2)n(-c2ccc(N3CCNCC3)c(C(F)(F)F)c2)c(=O)n4C)cn1 | active: -5.01
CC(C)c1cc(-c2n[nH]c(=O)n2-c2ccc3c(ccn3C)c2)c(O)cc1O [Ganetespib (STA-9090)] | active: -3.71
CC(=O)O[C@]1(C(C)=O)CC[C@H]2[C@@H]3C=C(Cl)C4=CC(=O)[C@@H]5C[C@@H]5[C@]4(C)[C@H]3CC[C@@]21C [Cyproterone Acetate] | inactive: -0.645
N[C@H]1C[C@@H]1c1ccc(-c2cccc(O)c2)cc1 | inactive: 0.0393
Cn1cc(-c2cnn3c(N)c(Br)c([C@@H]4CCCNC4)nc23)cn1 | inactive: 0.481
N[C@@H]1CONC1=O [D-Cycloserine] | inactive: 0.439
C=C1C[C@@]2(O)O[C@@]3(C[C@H]2C(C)C)[C@@H](C)CC[C@@H]13 [Curcumol] | inactive: -0.693
O=C(O)COCCN1CCN(C(c2ccccc2)c2ccc(Cl)cc2)CC1 (stereo unspecified) [Cetirizine DiHCl] | inactive: -0.0152
CCCSc1nc(N[C@@H]2C[C@H]2c2ccc(F)c(F)c2)c2nnn([C@@H]3C[C@H](OCCO)[C@@H](O)[C@H]3O)c2n1 [Ticagrelor] | inactive: 0.463
C=CC(=O)Nc1cccc(Nc2nc(Nc3ccc(Oc4ccnc(C(=O)NC)c4)cc3)ncc2F)c1 | inactive: -0.401
CC(=O)O[C@@]12CO[C@@H]1C[C@H](O)[C@@]1(C)C(=O)[C@H](O)C3=C(C)[C@@H](OC(=O)[C@H](O)[C@@H](NC(=O)OC(C)(C)C)c4ccccc4)C[C@@](O)([C@@H](OC(=O)c4ccccc4)[C@H]21)C3(C)C [Docetaxel Trihydrate] | inactive: -0.613
CC(=O)O[C@@]12CO[C@@H]1C[C@H](O)[C@@]1(C)C(=O)[C@H](O)C3=C(C)[C@@H](OC(=O)[C@H](O)[C@@H](NC(=O)OC(C)(C)C)c4ccccc4)C[C@@](O)([C@@H](OC(=O)c4ccccc4)[C@H]21)C3(C)C [Docetaxel] | inactive: 0.113
O=C(/C=C/c1ccccc1)NC(NC(=S)Nc1cccc2cccnc12)C(Cl)(Cl)Cl (stereo unspecified) [Salubrinal] | inactive: 0.0825
CN(C)CCN(Cc1ccccc1)c1ccccn1 [Tripelennamine HCl] | inactive: -0.38
CC1CNc2c(cccc2S(=O)(=O)N[C@@H](CCCNC(=N)N)C(=O)N2CC[C@@H](C)C[C@@H]2C(=O)O)C1 (stereo partly specified) [Argatroban] | inactive: -0.771
CO[C@H]1C[C@@H]2CC[C@@H](C)[C@@](O)(O2)C(=O)C(=O)N2CCCC[C@H]2C(=O)O[C@H]([C@H](C)C[C@@H]2CC[C@@H](OCCO)[C@H](OC)C2)CC(=O)[C@H](C)/C=C(\C)[C@@H](O)[C@@H](OC)C(=O)[C@H](C)C[C@H](C)/C=C/C=C/C=C/1C [Everolimus (RAD001)] | inactive: -0.931
Fc1ccc(Cl)cc1-c1nc(Nc2ccncc2)c2nccnc2n1 | inactive: 4.85
Nc1ccn([C@@H]2O[C@H](CO)[C@@H](O)C2(F)F)c(=O)n1 [Gemcitabine HCl] | active: -5.79

SMILES | nuclei number (z-score)
Nc1ccn([C@@H]2O[C@H](CO)[C@@H](O)C2(F)F)c(=O)n1 [Gemcitabine] | active: -4.42
COc1ccccc1N1CCN(CCN(C(=O)C2CCCCC2)c2ccccn2)CC1 | inactive: 0.253
Cc1cc(C)c(Nc2ccnc(Nc3ccc(C#N)cc3)n2)c(C)c1 [Dapivirine (TMC120)] | inactive: 6.23
Cc1cc(/C=C2/SC(=S)NC2=O)c(C)n1-c1cccnc1 [Optovin] | inactive: 0.41
C[C@@H](NC(=O)c1ncnc(N)c1Cl)c1ncc(C(=O)Nc2cc(C(F)(F)F)c(Cl)cn2)s1 | inactive: 0.908
Clc1ccc(CSC(Cn2ccnc2)c2ccc(Cl)cc2Cl)cc1 (stereo unspecified) [Sulconazole Nitrate] | inactive: -1.52
O=C(c1ccc(Nc2nccc(-c3cc4ccccc4s3)n2)cc1)N1CCC(N2CCCC2)CC1 [IKK-16 (IKK Inhibitor VII)] | active: -5.35
Nc1ncnc2c1ncn2[C@@H]1O[C@H](CO)[C@@H](O)[C@H]1O [Adenosine] | inactive: 0.487
N=C(N)NC(=O)Cc1c(Cl)cccc1Cl [Guanfacine Hydrochloride] | inactive: 0.392
O=C1Nc2ccccc2/C1=C1/Nc2ccccc2C1=O [Indirubin] | inactive: -1.27
COc1cc(C(=O)O)ccc1NC(=O)[C@@H]1N[C@@H](CC(C)(C)C)[C@](C#N)(c2ccc(Cl)cc2F)[C@H]1c1cccc(Cl)c1F [Idasanutlin (RG-7388)] | inactive: 0.319
O=C(O)C(O)Cc1ccc(O)c(O)c1 (stereo unspecified) [Sodium Danshensu] | inactive: 2.17
N[C@@H](Cc1cc(I)c(Oc2cc(I)c(O)c(I)c2)c(I)c1)C(=O)O [L-Thyroxine] | inactive: 1.59
CC1(C)CCC(C)(C)c2cc(NC(=O)c3ccc(C(=O)O)cc3)ccc21 [Tamibarotene] | inactive: 1.24
Oc1ccc(OC2CCCCO2)cc1 (stereo unspecified) [Deoxyarbutin] | inactive: 0.549
Nc1cccc2c1C(=O)N(C1CCC(=O)NC1=O)C2=O (stereo unspecified) [Pomalidomide] | inactive: 0.0222
COc1cc(O)c(C(=O)c2ccccc2)cc1S(=O)(=O)O [Sulisobenzone] | inactive: 1.44
CN(C)CCOC(c1ccccc1)c1ccccc1 [Diphenhydramine HCl] | inactive: 0.578
CN1CCN(C(=O)C2C(C(=O)O)[C@H]3CC[C@@H]2O3)CC1 (stereo partly specified) | inactive: 0.627
COc1ccc2[nH]c([S+]([O-])Cc3ncc(C)c(OC)c3C)nc2n1 (stereo unspecified) [Tenatoprazole] | inactive: -0.0211
